# Data published in PubChem BioAssay AID686970 (National Center for Advancing Translational Sciences (NCATS), 2013).
# Screen size: about 360,000 compounds; about 6,000 (1.7%) were called active. This list was built around the results that the source calls inconclusive (neither active nor inactive); the mix of calls is not that of the screen. Calls follow the shape of the dose curve; as a rule, active = well fitted cell-killing curve with a large enough effect; inconclusive = small, poorly fitted or top-dose-only effect, or effect the other way; inactive = flat fitted curve, though single readings scatter. No potency is given beside an inconclusive call; the fits are too rough.
# Assay: qHTS for induction of synthetic lethality in tumor cells producing 2HG: qHTS for the HT-1080-NT fibrosarcoma cell line;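 also: NT is the 2HG producing partner of a matched IDH1 knockdown line; nearly all actives have a fitted effect of over 55% in size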;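 as to activity, negative = less viability: 0% = DMSO-treated cells and -100% = media-only wells without cells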
# Settings: HT-1080-NT fibrosarcoma viability, CellTiter-Glo ATP luminescence, 48 h; activity, negative = less viability: at 46.1 µM (top of the series) unless noted
# In short: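 A 48-hour cytotoxicity screen used HT-1080-NT cells plated 2 hours before compound delivery. ATP-based CellTiter-Glo luminescence measured viability, normalized to DMSO and no-cell controls.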
# Potency is read from the fitted curve at half-maximal effect; tags tell the direction and shape of the fitted curve.
SMILES,"activity, negative = less viability",Potency
CC(C)Oc1ccc(C(=O)Nc2ccccc2N2CCOCC2)cc1,inactive: -3.71%,–
C=Cc1ccc(CSc2cc(C)nc3nc(C)nn23)cc1,inactive: -9.43%,–
Cc1ccc(C(=O)NCCNC(=O)c2ccc(C)o2)o1,–,"inconclusive [rising, single point]"
O=C(CN1C(=O)C(=O)N(Cc2ccccc2)C1=O)Nc1cc(Cl)cc(Cl)c1,–,active: 23.1 µM
COc1ccccc1/C=C(/NC(=O)c1ccccc1)C(=O)NCCCn1ccnc1,–,"inconclusive [rising, single point]"
COc1ccc(NS(=O)(=O)c2cccc(NC(=O)NC3CCCCC3)c2)cc1,–,"inconclusive [cytotoxic, single point]"
COc1ccccc1N1CCN(C(=O)c2ccc3[nH]c4c(c3c2)CC(C)CC4)CC1 (centres undefined),–,"inconclusive [cytotoxic, partial curve]"
Cn1c(=O)n(C)c2cc(NS(=O)(=O)c3ccc(Cl)s3)ccc21,–,"inconclusive [cytotoxic, single point]"
COc1ccc(CCNc2c3ccccc3nc3ccccc23)cc1OC,–,active: 20.6 µM
COc1ccc(F)cc1-c1cc(C(=O)N2CCc3ccccc3C2)[nH]n1,inconclusive: 11.1%,–
Cc1cc(OC(C)C(=O)NCc2ccccn2)c2c(C)c(Cc3ccccc3)c(=O)oc2c1 (centres undefined),–,"inconclusive [cytotoxic, partial curve]"
COc1ccccc1-n1c(SCC(=O)NCc2ccc3c(c2)OCO3)nc2cc([N+](=O)[O-])ccc21,inactive: -23%,–
O=C(Nc1ccc(-c2noc(CCc3ccccc3)n2)cc1)c1ccco1,–,"inconclusive [cytotoxic, single point]"
Nc1c(C(=O)NCCN2CCOCC2)c2nc3ccccc3nc2n1-c1ccccc1,inactive: -1.76%,–
CC(=O)N1CCN(c2ccc(NC(=S)NC(=O)COc3ccc(C(C)(C)C)cc3)cc2)CC1,–,"inconclusive [cytotoxic, partial curve]"
CNc1cccc(-c2ccc(C(C)=O)s2)n1,–,"inconclusive [rising, partial curve, poor fit]"
O=C(N/N=C(\c1ccccc1)c1ccccn1)c1cccc([N+](=O)[O-])c1,inconclusive: -31.1% [cytotoxic],–
CCc1nc2ccc(C(=O)NCc3ccc(OC)cc3)cn2c1N(C)CCC(C)C,–,"inconclusive [cytotoxic, single point]"
Nc1ccn([C@@H]2O[C@H](C(=O)NCCc3ccc(F)cc3)[C@@H](O)[C@H]2O)c(=O)n1,–,"inconclusive [rising, partial curve]"
O=C1Nc2ccccc2OCc2c1cccc2[N+](=O)[O-],inactive: 10.1%,–
COc1ccc(NC(=O)c2cc(=O)[nH]c(=O)[nH]2)cc1S(=O)(=O)Nc1ccccc1Cl,–,"inconclusive [cytotoxic, partial curve]"
Cc1cc2nc(-c3cc(N4CCOCC4)ccc3[N+](=O)[O-])ccn2n1,inactive: 16.9%,–
Cc1cccc(Cn2nc(C(C)(C)C)cc2C(=O)Nc2ccc(F)cc2)c1,–,"inconclusive [cytotoxic, partial curve, poor fit]"

SMILES,"activity, negative = less viability",Potency
C=C(C)CNC(=S)NNC(=O)c1ccco1,–,active: 2 µM
CC(=O)c1ccc(NC(=O)CNc2cc(S(=O)(=O)N3CCOCC3)ccc2N2CCCC2)cc1,inactive: -10%,–
CS(=O)(=O)N1CCc2cc(-c3csc(NC(=O)Cc4ccccc4)n3)ccc21,–,"inconclusive [cytotoxic, single point]"
C/C(=N\O)c1cc(Cl)cc(Cl)c1O,–,"inconclusive [cytotoxic, single point]"
COc1cccc(N2CC(O)=C(c3nc4ccccc4s3)C2=N)c1,–,"inconclusive [cytotoxic, full curve]"
Fc1cccc(Cc2c(-c3ccco3)nc3c4ccccc4ccn23)c1,–,"inconclusive [cytotoxic, single point]"
C=CCc1cc(Cl)ccc1OCCCNC(C)CC (centres undefined),–,"inconclusive [cytotoxic, partial curve, poor fit]"
COC(=O)N1C(=O)[C@@](c2ccccc2)(C2CCCCC2)N1C(=O)OC,–,"inconclusive [cytotoxic, single point]"
CCN(CC)c1ccc(Nc2nc(Cl)ncc2Br)cc1,inactive: -19%,–
COc1ccc(C(=O)O/N=C(\N)c2ccccc2)cc1,–,"inconclusive [cytotoxic, single point]"
Cc1ccc(-c2cc(C(=O)Nc3cc(C(=O)O)ccc3C)c3ccccc3n2)cc1,inactive: -7.92%,–
O=C(NNC(=S)Nc1ccc(Cl)cc1)c1ccccc1OC(F)F,–,"inconclusive [cytotoxic, single point]"
CCN1CCN(c2ccc([N+](=O)[O-])cc2C(=O)c2ccc(Cl)cc2)CC1,–,"inconclusive [cytotoxic, partial curve]"
Cc1ccc(C(=O)O/N=C(\N)c2ccccc2)c(Cl)c1,–,"inconclusive [cytotoxic, single point]"
O=C(c1ccccc1)c1nn(-c2ccc(Cl)cc2)c(=O)cc1C(F)(F)F,–,active: 18.4 µM
Cc1ccc(C(=O)NCCSc2c(C)[nH]c3ccccc23)cc1[N+](=O)[O-],–,"inconclusive [cytotoxic, single point]"
CCOC(=O)c1cnc(-n2nc(C)cc2C)nc1NC1CCCC1,–,"inconclusive [cytotoxic, single point]"
O=C(Nc1nnc([C@@H]2C[C@H](O)[C@@H](CO)O2)s1)c1ccccc1Cl,–,"inconclusive [rising, single point]"
CCc1nc2c(OCCC3CCCCC3)cccn2c1N(C=O)Cc1ccc(OC)cc1,–,"inconclusive [cytotoxic, single point]"
COC(=O)[C@H](Cc1ccccc1)NC(=O)/C=C/[C@H]1O[C@@H](n2cc(C)c(=O)[nH]c2=O)C[C@@H]1O,inactive: 17%,–
FC(F)(F)c1cccc(NC(=S)NNC(=S)NCc2ccccc2)c1,–,"inconclusive [cytotoxic, partial curve]"
CCc1nc2c(OCC(=O)N(C)C)cccn2c1N(C=O)Cc1ccc(OC)cc1,inactive: 9.7%,–
Cc1c(C(=O)NCc2ccccn2)sc(=O)n1Cc1ccc(-c2ccccc2)cc1,–,"inconclusive [cytotoxic, single point]"

SMILES,"activity, negative = less viability",Potency
Cc1ccc(Cn2nnc3c(=O)[nH]c(C4CCN(S(=O)(=O)c5ccccc5F)CC4)nc32)cc1,–,"inconclusive [cytotoxic, partial curve]"
Cc1ccc2oc(C(=O)NCc3ccc4c(c3)OCO4)c(C)c2c1,–,"inconclusive [cytotoxic, single point]"
O=C(/C=C/c1ccc2c(c1)OCO2)Nc1nncs1,–,"inconclusive [cytotoxic, full curve]"
O=C(CN1C(=O)C2(OCCO2)c2cc(Br)ccc21)NO,–,"inconclusive [cytotoxic, single point]"
CC1=CC(c2ccccc2)n2ncnc2N1 (centres undefined),–,"inconclusive [rising, single point]"
O=C(Nc1cccc(-c2cn3ccccc3n2)c1)c1cccc(Cl)c1,–,"inconclusive [cytotoxic, single point]"
CN(C)CCCN(C(=O)CCc1ccccc1)c1nc2ccc(Cl)cc2s1,–,active: 23.1 µM
Cc1sc2nc(CN3CCOCC3)nc(N3CCOCC3)c2c1C,inactive: 11.6%,–
O=C(Cc1cccs1)N/N=C/C(Br)=C/c1ccccc1,–,"inconclusive [cytotoxic, single point]"
C/C(=N/Nc1ccnc2cc(Cl)ccc12)c1ccc(N)cc1,–,"inconclusive [cytotoxic, single point]"
O=C(c1cccc(C(F)(F)F)c1)C1CCCN(Cc2cccn2-c2ccccn2)C1 (centres undefined),–,"inconclusive [cytotoxic, partial curve]"
Nc1c(C(=O)NCC2CCCO2)c2nc3ccccc3nc2n1-c1ccccc1 (centres undefined),–,"inconclusive [cytotoxic, single point]"
Cc1nc(NCc2ccc3c(c2)OCO3)c2oc3ccccc3c2n1,–,"inconclusive [cytotoxic, single point]"
O=C(Nc1cccc(NC(=O)c2ccco2)c1)c1cccc(Br)c1,–,"inconclusive [cytotoxic, single point]"
CCOc1ccc(NC(=O)C2CCCN(C(=O)NCc3ccccc3)C2)cc1 (centres undefined),inactive: 9.35%,–
CC(=O)O[C@]1(C(C)=O)CC[C@H]2[C@@H]3C[C@H](C)C4=CC(=O)CC[C@]4(C)[C@H]3CC[C@@]21C,–,"inconclusive [cytotoxic, single point]"
O=C(CCC(=O)Nc1ccc(Br)cc1)N/N=C/c1ccccc1O,–,active: 10.3 µM
O=c1cc(NCCc2ccccc2)c2ccccc2o1,inactive: -22.9%,–
COc1ccc(S(=O)(=O)N2CCCN(S(=O)(=O)c3ccc(OC)c(C)c3)CC2)cc1C,–,"inconclusive [cytotoxic, single point]"
Cc1noc(C)c1S(=O)(=O)NC(=O)C1(C)CCN1C(=O)C1(c2ccc(Cl)cc2)CC1 (centres undefined),inactive: 23.8%,–
CCc1cc2c(CN(C)Cc3ccccc3F)cc(=O)oc2cc1O,–,"inconclusive [cytotoxic, single point]"
COc1ccc(CC(N)c2csc(NC(=O)Nc3ccccc3C(C)C)n2)cc1 (centres undefined),–,"inconclusive [cytotoxic, single point]"
CCN(CC)C(=O)c1ccc(S(=O)(=O)N2CCC(c3nc4ccccc4s3)CC2)cc1,–,"inconclusive [cytotoxic, full curve, poor fit]"
